Experimental data published in PubChem BioAssay AID504466 (National Center for Advancing Translational Sciences (NCATS), 2011).
Hit rate of the full screen: of about 330,000 compounds, about 4,200 (1.3%) were called active. Inconclusive means that the source gave no clear call. Such entries were picked first, then a sample of the others. Calls come from the whole dose curve; as a rule, active = well fitted activation curve with a large enough effect; inconclusive = small, poorly fitted or top-dose-only effect; inactive = no such curve, though single readings can be large or run the other way. A potency beside an inconclusive call is a rough fit, not a confirmed value.

Experiment: qHTS screen for small molecules that induce genotoxicity in human embryonic kidney (HEK293T) cells expressing luciferase-tagged ELG1; note: nearly all actives have a fitted effect of over 60% in size; for activity change, positive = activation: % of control where 0% means no effect
Conditions: HEK293T ELG1-luciferase reporter, luminescence, 16 h; series mostly up to 46 µM; activity change, positive = activation: at the top concentration
Procedure, shortened: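 Genotoxic stress is detected as increased luminescence from luciferase-tagged ELG1 in HEK293T cells, measured with ONE-Glo after a 16 hr treatment at 37 °C.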
Potency is the fitted concentration of half-maximal effect; tags give direction and shape of the fitted curve.

Question: Which Potency does the source give for `O=C(Nc1ccc2sc3ccccc3c(=O)c2c1)c1ccccc1Cl` here?
Answer: The Potency was inconclusive: 2.31 µM [activator, partial curve, poor fit].

Question: Which Potency does the source give for `Cc1ccc(-c2nc(-c3ccncc3)no2)c(C)c1` here?
Answer: The Potency was active: 20.6 µM.

Question: Which Potency does the source give for `COc1ccc2c(=O)c(-c3ccc(OC)c(OC)c3)coc2c1` here?
Answer: The Potency was inconclusive: 18.3 µM [activator, partial curve].

Question: With `Clc1ccc(/C=C/c2ncc3ccccn23)cc1` as the molecule, how does the Potency read?
Answer: Its Potency is inconclusive: 8.2 µM [activator, partial curve].

Question: For `Cc1nc(COc2ccc(C(=O)NCc3ccccc3CN3CCCCC3)cc2)cs1`, which “activity change, positive = activation” value is on record?
Answer: Its value is inactive: -1.89%.

Question: For `O=C(/C=C/c1ccc(Br)cc1)NC(=O)c1ccccc1O`, which Potency is on record?
Answer: Its Potency is inconclusive: 2.59 µM [activator, full curve].

Question: With `C=CCNc1ncnc2c1cnn2-c1cccc(C)c1` as the molecule, how does the Potency read?
Answer: The Potency was active: 2.91 µM.

Question: With `Cc1c(C(=O)NCC2CCCO2)oc2ccc3c(c12)C(=O)CC(C)(C)O3` (stereo not drawn) as the molecule, how does the Potency read?
Answer: The Potency was inconclusive: 1.84 µM [activator, full curve].

Question: For `COc1ccc(C2=Nc3ccccc3OC2)cc1`, which Potency is on record?
Answer: The Potency was active: 0.517 µM.

Question: Which Potency does the source give for `CCOc1cc2[nH]c(=S)n(CCc3ccc(OC)c(OC)c3)c(=O)c2cc1OCC` here?
Answer: The Potency was inconclusive: 7.08 µM [activator, full curve, poor fit].

Question: For `O=C(c1noc2c1CCc1ccccc1-2)N1CCc2ccccc2C1`, which Potency is on record?
Answer: The Potency was inconclusive: 18.4 µM [activator, single point].

Question: Which Potency does the source give for `CCOC(=O)N1CCN(C(=O)COc2cc(=O)n(C)c3ccccc23)CC1` here?
Answer: The Potency was inconclusive: 25.9 µM [activator, partial curve, poor fit].

Question: With `CCn1ccc2cc(OC)ccc2c1=S` as the molecule, how does the Potency read?
Answer: Its Potency is inconclusive: 18.4 µM [activator, partial curve, poor fit].

Question: With `O=C(COc1ccccc1Cl)NC(=O)NC1CCCC1` as the molecule, how does the Potency read?
Answer: The Potency was inconclusive: 18.4 µM [activator, partial curve].

Question: Which Potency does the source give for `Cc1cc(NC(=O)c2cccs2)ncc1NC(=O)c1cccc(F)c1` here?
Answer: Its Potency is inconclusive: 14.6 µM [activator, partial curve, poor fit].

Question: Which “activity change, positive = activation” value does the source give for `O=C(O)c1ccccc1Nc1ccc([N+](=O)[O-])c2nonc12` here?
Answer: The value was inactive: -1.59%.

Question: Which “activity change, positive = activation” value does the source give for `COc1cccc(/C=N/NC(N)=S)c1OCc1ccccc1Cl` here?
Answer: The value was inactive: -3.69%.

Question: For `C=CCSc1nc2ccccc2n1C(=O)/C=C/c1ccc(OC)c(OC)c1`, which Potency is on record?
Answer: Its Potency is inconclusive: 5.17 µM [activator, partial curve, poor fit].

Question: Which “activity change, positive = activation” value does the source give for `CN(C(=O)COC(=O)COc1ccc(Cl)cc1Cl)c1c(N)n(Cc2ccccc2)c(=O)[nH]c1=O` here?
Answer: The value was inactive: -0.316%.

Question: With `O=C(NCC1CC1)Nc1ccc(Cl)cc1` as the molecule, how does the Potency read?
Answer: The Potency was inconclusive: 16.4 µM [activator, partial curve].

Question: For `COc1ccc2[nH]c(C(=O)Nc3cccc(C)n3)cc2c1`, which Potency is on record?
Answer: Its Potency is inconclusive: 1.3 µM [activator, partial curve].

Question: With `O=C(Nc1ccc(Cl)cc1)c1cc(-c2cccs2)on1` as the molecule, how does the Potency read?
Answer: The Potency was inconclusive: 23.1 µM [activator, single point].

Question: Which Potency does the source give for `Brc1ccc(/C=N/Nc2ccc3ccccc3n2)cc1` here?
Answer: Its Potency is inconclusive: 14.6 µM [activator, partial curve, poor fit].

Question: With `O=C(CSc1ccccc1)Nc1ccc(-c2nc3ccccc3[nH]2)cc1` as the molecule, how does the Potency read?
Answer: The Potency was inconclusive: 6.51 µM [activator, partial curve].

Question: Which Potency does the source give for `COc1ccc(-c2nn(C)c(=O)c3ccccc23)cc1CNS(C)(=O)=O` here?
Answer: Its Potency is inconclusive: 16.4 µM [activator, single point].

Question: With `N#Cc1cc2c(nc1SCC(=O)N1CCOCC1)CCCCC2` as the molecule, how does the Potency read?
Answer: The Potency was inconclusive: 1.58 µM [activator, full curve, poor fit].

Question: For `CCCS/C(N)=N/N=C/c1ccccc1O`, which Potency is on record?
Answer: Its Potency is active: 3.16 µM.

Question: For `CCCN(C(=O)Cc1nc(N)n[nH]1)C1(C(=O)Nc2ccccc2C)CCCCC1`, which “activity change, positive = activation” value is on record?
Answer: The value was inactive: -1.72%.

Question: With `Nc1ccc2oc3ccc(N)cc3c(=O)c2c1` as the molecule, how does the Potency read?
Answer: Its Potency is inconclusive: 25.9 µM [activator, single point].

Question: Which “activity change, positive = activation” value does the source give for `COc1ccc(CCC(=O)OCC(=O)NCc2ccc3c(c2)OCO3)cc1` here?
Answer: Its value is inactive: 0.766%.

Question: For `CNC[C@H]1Oc2c(NS(=O)(=O)c3cccs3)cccc2C(=O)N([C@H](C)CO)C[C@@H]1C`, which “activity change, positive = activation” value is on record?
Answer: Its value is inactive: 4.1%.

Question: With `Cc1ccc(C(=O)/C=C/c2cn(CN3CCN(C)CC3)c3ccccc23)cc1` as the molecule, how does the Potency read?
Answer: Its Potency is active: 14.6 µM.

Question: With `Clc1ccc2noc(-c3ccccc3)c2c1` as the molecule, how does the “activity change, positive = activation” value read?
Answer: Its value is inactive: -22.3%.

Question: Which “activity change, positive = activation” value does the source give for `CCOC(=O)CSc1nc2cccnc2n1C` here?
Answer: Its value is inactive: -0.147%.

Question: For `COc1ccc(-c2cc(=Nc3c(C)n(C)n(-c4ccccc4)c3=O)c3ccccc3o2)cc1`, which Potency is on record?
Answer: Its Potency is inconclusive: 14.6 µM [activator, partial curve, poor fit].

Question: Which “activity change, positive = activation” value does the source give for `O=C(COC(=O)COc1ccccc1)NCCC1=CCCCC1` here?
Answer: Its value is inactive: -0.055%.

Question: For `COc1ccc(-c2cn3cc(C(=O)NN)ccc3n2)cc1`, which Potency is on record?
Answer: The Potency was inconclusive: 8.2 µM [activator, partial curve].

Question: Which Potency does the source give for `O=C(CSc1nnc(-c2ccc(OC(F)F)cc2)o1)N1CCOCC1` here?
Answer: Its Potency is inconclusive: 20.6 µM [activator, partial curve, poor fit].

Question: For `COC(=O)c1cnn(-c2nc(-c3ccccc3)cs2)c1N`, which Potency is on record?
Answer: Its Potency is inconclusive: 13 µM [activator, partial curve, poor fit].

Question: With `CCN(C(=O)c1cc2c(=O)[nH]c3ccc(C)cc3c2s1)c1ccccc1C` as the molecule, how does the Potency read?
Answer: The Potency was inconclusive: 18.3 µM [activator, partial curve, poor fit].

Question: Which Potency does the source give for `O=C(/C=C/c1ccccc1)NC(=O)c1ccccc1O` here?
Answer: The Potency was inconclusive: 18.3 µM [activator, partial curve].

Question: For `CC(NC(=O)OC1CCCCC1)N1C(=O)C2C3C=CC(C3)C2C1=O` (stereo not drawn), which Potency is on record?
Answer: Its Potency is inconclusive: 29.1 µM [activator, partial curve, poor fit].

Question: With `Cc1ccc(-c2noc(-c3ccccc3C(=O)N3CCN(C)CC3)n2)cc1` as the molecule, how does the Potency read?
Answer: Its Potency is inconclusive: 18.4 µM [activator, partial curve, poor fit].

Question: With `COc1cc(NC(=O)c2cccs2)c(OC)cc1NC(=O)CCC(=O)Nc1ccc(C)cc1` as the molecule, how does the “activity change, positive = activation” value read?
Answer: The value was inactive: 4.35%.

Question: For `O=[N+]([O-])c1ccc2c(c1)nc1n2CCN(C2CCCCC2)C1`, which Potency is on record?
Answer: Its Potency is inconclusive: 8.2 µM [activator, partial curve, poor fit].

Question: With `c1ccc2cc3[nH]c(CN4CCCCC4)nc3cc2c1` as the molecule, how does the Potency read?
Answer: The Potency was inconclusive: 25.9 µM [activator, single point].

Question: With `O=C(N/N=C/c1cccnc1)c1ccc([N+](=O)[O-])cc1Cl` as the molecule, how does the “activity change, positive = activation” value read?
Answer: Its value is inactive: -2.4%.

Question: Which “activity change, positive = activation” value does the source give for `CC(/C=C/c1ccccc1)=N\Nc1ccccc1[N+](=O)[O-]` here?
Answer: Its value is inactive: 13.7%.

Question: With `Nc1nc(-c2ccccc2Br)cs1` as the molecule, how does the “activity change, positive = activation” value read?
Answer: The value was inactive: -2.49%.

Question: For `O=C(c1ccccc1)c1ccc2nc(-c3ccc(NC(=O)c4ccccc4F)cc3)[nH]c2c1`, which Potency is on record?
Answer: Its Potency is inconclusive: 25.9 µM [activator, partial curve, poor fit].

Question: Which Potency does the source give for `CN1C(=O)c2ccc(N3CCCC3)cc2C1=O` here?
Answer: Its Potency is inconclusive: 20.6 µM [activator, partial curve, poor fit].

Question: With `O=C(O)CSc1cc(NS(=O)(=O)c2ccc(Br)cc2)c2ccccc2c1O` as the molecule, how does the “activity change, positive = activation” value read?
Answer: Its value is inactive: -15.5%.

Question: For `COc1ccc2nc(NC(=O)c3cccc(-c4cc5ccccc5oc4=O)c3)sc2c1`, which Potency is on record?
Answer: The Potency was inconclusive: 8.2 µM [activator, partial curve, poor fit].

Question: Which Potency does the source give for `Cc1oc(/C=N/NS(=O)(=O)c2ccccc2)cc1Br` here?
Answer: The Potency was inconclusive: 20.6 µM [activator, partial curve, poor fit].

Question: Which Potency does the source give for `Cc1c(C)c2ccc(OCC(=O)Nc3cccnc3)cc2oc1=O` here?
Answer: Its Potency is inconclusive: 18.3 µM [activator, partial curve, poor fit].

Question: For `CC1CCN(C(=O)c2ccc(-c3ccccc3Cl)o2)CC1`, which Potency is on record?
Answer: Its Potency is inconclusive: 6.51 µM [activator, partial curve].

Question: Which “activity change, positive = activation” value does the source give for `O=C(Nc1ccccc1)c1ccc(Br)o1` here?
Answer: Its value is inactive: 17.3%.

Question: For `COc1ccc2nc(C)cc(Nc3ccccc3O)c2c1`, which “activity change, positive = activation” value is on record?
Answer: The value was inactive: -6.57%.

Question: Which Potency does the source give for `CCc1ccc(NCc2nc(-c3ccccc3)no2)cc1` here?
Answer: Its Potency is inconclusive: 23.1 µM [activator, partial curve, poor fit].

Question: With `CC(C)(C)c1ccc(C(=O)NNc2ccc(F)cc2F)cc1` as the molecule, how does the Potency read?
Answer: The Potency was inconclusive: 16.4 µM [activator, partial curve, poor fit].

Question: With `N#C/C(=C\c1ccccc1)c1ccccn1` as the molecule, how does the Potency read?
Answer: The Potency was inconclusive: 16.4 µM [activator, single point].

Question: Which Potency does the source give for `O=c1oc2cc(OCc3ccc(F)cc3F)ccc2cc1-c1ccccn1` here?
Answer: Its Potency is inconclusive: 7.31 µM [activator, partial curve].

Question: Which “activity change, positive = activation” value does the source give for `O=C(CN1C(=O)/C(=C/c2ccccc2)SC1=S)N1CCN(CCc2ccccn2)CC1` here?
Answer: The value was inactive: -4.66%.

Question: For `Nc1nonc1-n1nnc(C(=O)N/N=C/c2ccc(OCc3ccc(F)cc3)cc2)c1COc1ccccc1`, which Potency is on record?
Answer: The Potency was inconclusive: 18.3 µM [activator, partial curve, poor fit].

Question: With `CCc1ccc2oc(C(=O)NCc3ccc(S(N)(=O)=O)cc3)c(C)c2c1` as the molecule, how does the Potency read?
Answer: The Potency was inconclusive: 29.1 µM [activator, single point].

Question: Which “activity change, positive = activation” value does the source give for `C=CCn1c(NCc2ccccc2OC)nc2ccccc21` here?
Answer: The value was inactive: 4.86%.

Question: With `Cc1cc2nc(-c3ccc(NC(=O)C(C)C)cc3)oc2cc1C` as the molecule, how does the Potency read?
Answer: The Potency was active: 0.82 µM.

Question: With `COC(=O)C(/C=N/OCc1ccc([N+](=O)[O-])cc1)NC(=O)c1cccc(Cl)c1` (stereo not drawn) as the molecule, how does the “activity change, positive = activation” value read?
Answer: Its value is inactive: -0.404%.

Question: With `Cc1ccc(/C=C/C(=O)c2ccccc2O)cc1` as the molecule, how does the Potency read?
Answer: Its Potency is inconclusive: 23.1 µM [activator, single point].

Question: For `CC(/C=N/NC(=O)c1cccnc1)=C\c1ccccc1`, which Potency is on record?
Answer: The Potency was inconclusive: 9.2 µM [activator, partial curve].

Question: For `COc1ccc(C2CC(c3ccccc3)=NN2C(=O)CN2CCN(Cc3ccccc3)CC2)cc1` (stereo not drawn), which “activity change, positive = activation” value is on record?
Answer: Its value is inactive: -10.7%.

Question: Which “activity change, positive = activation” value does the source give for `Nc1ccccc1SCc1csc(-c2ccc(Cl)cc2)n1` here?
Answer: The value was inactive: 9.48%.

Question: With `CC(=O)c1cccc(Nc2nc(=O)c3cccnc3s2)c1` as the molecule, how does the Potency read?
Answer: The Potency was inconclusive: 15.8 µM [activator, partial curve, poor fit].
